# Measured values reported in the supplement of paper PMC8728848.
# The list shows a part of the results.
# B1: Pwp3 (Candida glabrata) (protein)
# chain: MGSSHHHHHHSSGLVPRGSHMASKNPVDFTTVCQFPDNFSKKPGFLATTARLGLWITGNSYKELLNYPGTFTLTTQQASTTTPNIQLRGTDLFTTIYGLTVYPLYLLVELQGYFVPTQSGMYTFSLTGSDDAAIIFIGNPSTFPCDAFKTWPQATANDITVTDSINPSRTLYMVKGVAYPLRIAYYNGLGNGVLNAAFTDPSGTKRTDWNGYIWQYDQCSTCTYK
# Experiments:
# Assay in all cases: glycan array binding signal (z-score within array); higher = stronger binding
# Details in all cases: glycan notation: IUPAC condensed, linker removed
# [1] = target: Neu5Ac(a2-3)Gal(b1-3)]Neu5Ac(a2-3)Gal(b1-4)]GlcNAc
# Summary of the method: (§1)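 From the Consortium for Functional Glycomics database, 3228 arrays were curated, keeping only those whose protein sequence was available. Binding is given as a within-array Z-score averaged across arrays sharing a protein sequence and across linkers. Negative Z-scores can be read as non-binding.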
# Neu5Ac(a2-3)Gal(b1-4)Glc = target: Neu5Ac(a2-3)Gal(b1-4)Glc
# Summary of the method: as §1
# [2] = target: Neu5Ac(a2-3)Gal(b1-4)GlcNAc
# Summary of the method: as §1
# [3] = target: Neu5Ac(a2-3)Gal(b1-4)GlcNAc(b1-2)Man
# Summary of the method: as §1
# [4] = target: Neu5Ac(a2-3)Gal(b1-4)GlcNAc(b1-2)Man(a1-3)[GlcNAc(b1-4)][Neu5Ac(a2-3)Gal(b1-4)GlcNAc(b1-2)Man(a1-6)]Man(b1-4)GlcNAc(b1-4)GlcNAc
# Summary of the method: as §1
# [5] = target: Neu5Ac(a2-3)Gal(b1-4)GlcNAc(b1-2)Man(a1-3)[Neu5Ac(a2-3)Gal(b1-4)GlcNAc(b1-2)Man(a1-6)]Man(b1-4)GlcNAc(b1-4)GlcNAc
# Summary of the method: as §1
# [6] = target: Neu5Ac(a2-3)Gal(b1-4)GlcNAc(b1-2)Man(a1-3)[Neu5Ac(a2-3)Gal(b1-4)GlcNAc(b1-2)Man(a1-6)]Man(b1-4)GlcNAc(b1-4)[Fuc(a1-6)]GlcNAc
# Summary of the method: as §1
# [7] = target: Neu5Ac(a2-3)Gal(b1-4)GlcNAc(b1-2)Man(a1-3)[Neu5Ac(a2-6)Gal(b1-4)GlcNAc(b1-2)Man(a1-6)]Man(b1-4)GlcNAc(b1-4)GlcNAc
# Summary of the method: as §1
# [8] = target: Neu5Ac(a2-3)Gal(b1-4)GlcNAc(b1-2)[Neu5Ac(a2-3)Gal(b1-4)GlcNAc(b1-4)]Man(a1-3)[GlcNAc(b1-4)][Neu5Ac(a2-3)Gal(b1-4)GlcNAc(b1-2)[Neu5Ac(a2-3)Gal(b1-4)GlcNAc(b1-6)]Man(a1-6)]Man(b1-4)GlcNAc(b1-4)GlcNAc
# Summary of the method: as §1
# [9] = target: Neu5Ac(a2-3)Gal(b1-4)GlcNAc(b1-2)[Neu5Ac(a2-3)Gal(b1-4)GlcNAc(b1-4)]Man(a1-3)[GlcNAc(b1-4)][Neu5Ac(a2-3)Gal(b1-4)GlcNAc(b1-4)Man(a1-6)]Man(b1-4)GlcNAc(b1-4)GlcNAc
# Summary of the method: as §1
# [10] = target: Neu5Ac(a2-3)Gal(b1-4)GlcNAc(b1-2)[Neu5Ac(a2-3)Gal(b1-4)GlcNAc(b1-6)]Man(a1-6)[Neu5Ac(a2-3)Gal(b1-4)GlcNAc(b1-2)Man(a1-3)][GlcNAc(b1-4)]Man(b1-4)GlcNAc(b1-4)GlcNAc
# Summary of the method: as §1
# [11] = target: Neu5Ac(a2-3)Gal(b1-4)GlcNAc(b1-3)Gal
# Summary of the method: as §1
# [12] = target: Neu5Ac(a2-3)Gal(b1-4)GlcNAc(b1-3)Gal(b1-3)GlcNAc
# Summary of the method: as §1
# [13] = target: Neu5Ac(a2-3)Gal(b1-4)GlcNAc(b1-3)Gal(b1-4)GlcNAc
# Summary of the method: as §1
# [14] = target: Neu5Ac(a2-3)Gal(b1-4)GlcNAc(b1-3)Gal(b1-4)GlcNAc(b1-2)Man(a1-3)[Neu5Ac(a2-3)Gal(b1-4)GlcNAc(b1-3)Gal(b1-4)GlcNAc(b1-2)Man(a1-6)]Man(b1-4)GlcNAc(b1-4)GlcNAc
# Summary of the method: as §1
# [15] = target: Neu5Ac(a2-3)Gal(b1-4)GlcNAc(b1-3)Gal(b1-4)GlcNAc(b1-3)Gal(b1-4)GlcNAc
# Summary of the method: as §1
# [16] = target: Neu5Ac(a2-3)Gal(b1-4)GlcNAc(b1-3)Gal(b1-4)GlcNAc(b1-3)Gal(b1-4)GlcNAc(b1-2)Man(a1-3)[Neu5Ac(a2-3)Gal(b1-4)GlcNAc(b1-3)Gal(b1-4)GlcNAc(b1-3)Gal(b1-4)GlcNAc(b1-2)Man(a1-6)]GalNAc
# Summary of the method: as §1
# [17] = target: Neu5Ac(a2-3)Gal(b1-4)GlcNAc(b1-3)Gal(b1-4)GlcNAc(b1-3)GalNAc
# Summary of the method: as §1
# [18] = target: Neu5Ac(a2-3)Gal(b1-4)GlcNAc(b1-3)Gal(b1-4)GlcNAc(b1-3)[Neu5Ac(a2-3)Gal(b1-4)GlcNAc(b1-3)Gal(b1-4)GlcNAc(b1-6)]GalNAc
# Summary of the method: as §1
# [19] = target: Neu5Ac(a2-3)Gal(b1-4)GlcNAc(b1-3)Gal(b1-4)GlcNAc(b1-6)[Gal(b1-3)]GalNAc
# Summary of the method: as §1
# [20] = target: Neu5Ac(a2-3)Gal(b1-4)GlcNAc(b1-3)Gal(b1-4)[Fuc(a1-3)]GlcNAc
# Summary of the method: as §1
# [21] = target: Neu5Ac(a2-3)Gal(b1-4)GlcNAc(b1-3)GalNAc
# Summary of the method: as §1
# [22] = target: Neu5Ac(a2-3)Gal(b1-4)GlcNAc(b1-3)[Neu5Ac(a2-3)Gal(b1-4)GlcNAc(b1-6)]GalNAc
# Summary of the method: as §1
# [23] = target: Neu5Ac(a2-3)Gal(b1-4)GlcNAc(b1-6)GalNAc
# Summary of the method: as §1
# [24] = target: Neu5Ac(a2-3)Gal(b1-4)GlcNAc(b1-6)[Gal(b1-3)]GalNAc
# Summary of the method: as §1
# [25] = target: Neu5Ac(a2-3)Gal(b1-4)GlcNAc(b1-6)[Neu5Ac(a2-3)Gal(b1-3)]GalNAc
# Summary of the method: as §1
# [26] = target: Neu5Ac(a2-3)Gal(b1-4)GlcNAc6S
# Summary of the method: as §1
# [27] = target: Neu5Ac(a2-3)Gal(b1-4)[Fuc(a1-3)]GlcNAc
# Summary of the method: as §1
# [28] = target: Neu5Ac(a2-3)Gal(b1-4)[Fuc(a1-3)]GlcNAc(b1-2)Man
# Summary of the method: as §1
# [29] = target: Neu5Ac(a2-3)Gal(b1-4)[Fuc(a1-3)]GlcNAc(b1-3)Gal
# Summary of the method: as §1
# [30] = target: Neu5Ac(a2-3)Gal(b1-4)[Fuc(a1-3)]GlcNAc(b1-3)Gal(b1-4)GlcNAc
# Summary of the method: as §1
# [31] = target: Neu5Ac(a2-3)Gal(b1-4)[Fuc(a1-3)]GlcNAc(b1-3)Gal(b1-4)[Fuc(a1-3)]GlcNAc(b1-3)Gal(b1-4)[Fuc(a1-3)]GlcNAc
# Summary of the method: as §1
# [32] = target: Neu5Ac(a2-3)Gal(b1-4)[Fuc(a1-3)]GlcNAc(b1-3)GalNAc
# Summary of the method: as §1
# [33] = target: Neu5Ac(a2-3)Gal(b1-4)[Fuc(a1-3)]GlcNAc(b1-6)[Gal(b1-3)]GalNAc
# Summary of the method: as §1
# [34] = target: Neu5Ac(a2-3)Gal(b1-4)[Fuc(a1-3)]GlcNAc(b1-6)[Neu5Ac(a2-3)Gal(b1-3)]GalNAc
# Summary of the method: as §1
# [35] = target: Neu5Ac(a2-3)Gal(b1-4)[Fuc(a1-3)]GlcNAc6S
# Summary of the method: as §1
# [36] = target: Neu5Ac(a2-3)Gal6S(b1-4)GlcNAc
# Summary of the method: as §1
# [37] = target: Neu5Ac(a2-3)Gal6S(b1-4)[Fuc(a1-3)]GlcNAc
# Summary of the method: as §1
binder,measurement,setting,value
B1,glycan array binding signal (z-score),[1],-0.06
same,glycan array binding signal (z-score),Neu5Ac(a2-3)Gal(b1-4)Glc,0.697
same,glycan array binding signal (z-score),[2],-0.656
same,glycan array binding signal (z-score),[3],-0.311
same,glycan array binding signal (z-score),[4],0.319
same,glycan array binding signal (z-score),[5],-0.604
same,glycan array binding signal (z-score),[6],0.057
same,glycan array binding signal (z-score),[7],0.985
same,glycan array binding signal (z-score),[8],1.42
same,glycan array binding signal (z-score),[9],0.337
same,glycan array binding signal (z-score),[10],-1.54
same,glycan array binding signal (z-score),[11],0.133
same,glycan array binding signal (z-score),[12],-0.765
same,glycan array binding signal (z-score),[13],-0.31
same,glycan array binding signal (z-score),[14],-0.24
same,glycan array binding signal (z-score),[15],-0.379
same,glycan array binding signal (z-score),[16],-0.432
same,glycan array binding signal (z-score),[17],-0.424
same,glycan array binding signal (z-score),[18],0.044
same,glycan array binding signal (z-score),[19],2.29
same,glycan array binding signal (z-score),[20],0.188
same,glycan array binding signal (z-score),[21],-0.234
same,glycan array binding signal (z-score),[22],2.16
same,glycan array binding signal (z-score),[23],-0.242
same,glycan array binding signal (z-score),[24],1.44
same,glycan array binding signal (z-score),[25],-0.702
same,glycan array binding signal (z-score),[26],-0.776
same,glycan array binding signal (z-score),[27],0.139
same,glycan array binding signal (z-score),[28],-0.143
same,glycan array binding signal (z-score),[29],-0.349
same,glycan array binding signal (z-score),[30],-0.246
same,glycan array binding signal (z-score),[31],-0.332
same,glycan array binding signal (z-score),[32],-0.669
same,glycan array binding signal (z-score),[33],-1.81
same,glycan array binding signal (z-score),[34],0.931
same,glycan array binding signal (z-score),[35],-0.603
same,glycan array binding signal (z-score),[36],-0.707
same,glycan array binding signal (z-score),[37],-0.332
